# Structures can show the parent of a compound that is named as a salt. Where two headings read alike, the source gives them in different places.
# What was measured:
# human NTCP [1] = biological target: T1, human NTCP (Homo sapiens, UniProt Q14973); assay: Screening taurocholate uptake assay (96-well, [14C]taurocholate, 10 µM drug); details: for remaining activity at 10 µM: 10 min, read-out: %NTCP activity
# T1 sequence (Q14973 1-349): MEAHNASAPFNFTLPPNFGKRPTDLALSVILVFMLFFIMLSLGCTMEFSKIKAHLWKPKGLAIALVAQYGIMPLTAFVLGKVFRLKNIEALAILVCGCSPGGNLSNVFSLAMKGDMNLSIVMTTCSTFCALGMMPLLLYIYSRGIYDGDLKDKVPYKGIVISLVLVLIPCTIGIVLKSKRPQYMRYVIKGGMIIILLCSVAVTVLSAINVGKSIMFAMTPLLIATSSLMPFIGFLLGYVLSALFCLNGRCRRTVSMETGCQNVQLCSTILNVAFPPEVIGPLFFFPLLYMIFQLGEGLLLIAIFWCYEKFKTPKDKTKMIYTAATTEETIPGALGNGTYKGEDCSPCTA
# human NTCP [2] = biological target: T1, human NTCP; assay: Screening fluorescent competitive Myrcludex B-FITC binding assay (96-well, 10 µM drug)
# [3] = screen, 10 µM drug, Myrcludex B-FITC binding
# [4] = 0.5 h, read-out: %NTCP binding, screen, 10 µM drug, Myrcludex B-FITC binding
# [5] = Prestwick library screen, 10 µM drug, Myrcludex B-FITC binding
structure (smiles),measurement,setting,value
C[C@H]1NC(=O)NC1=O [Methylhydantoin-5-(D)],%NTCP activity,human NTCP [1],91.3725%
same,%NTCP binding,human NTCP [2]; [3],81.2402%
OCCN(CCO)c1nc(N2CCCCC2)c2nc(N(CCO)CCO)nc(N3CCCCC3)c2n1 [Dipyridamole],remaining activity at 10 µM,human NTCP [1],59.6%
same,remaining activity at 10 µM,"human NTCP [2]; 0.5 h, read-out: %NTCP binding",90.2%
Cc1cnc(C(=O)NCCc2ccc(S(=O)(=O)NC(=O)NC3CCCCC3)cc2)cn1 [Glipizide],remaining activity at 10 µM,human NTCP [1],47.4%
same,remaining activity at 10 µM,"human NTCP [2]; 0.5 h, read-out: %NTCP binding",92.8%
"CCC1(c2ccc(N)cc2)CCC(=O)NC1=O (centres unmarked) [Glutethimide, para-amino]",%NTCP activity,human NTCP [1],33.9561%
same,%NTCP binding,"human NTCP [2]; Prestwick library screen, Myrcludex B-FITC binding, 10 µM drug",79.4709%
C[N+]1(C)CCCC(OC(=O)C(O)(c2ccccc2)c2ccccc2)C1 (centres unmarked) [Mepenzolate bromide],remaining activity at 10 µM,human NTCP [1],73.2%
same,remaining activity at 10 µM,"human NTCP [2]; 0.5 h, read-out: %NTCP binding",72.2%
C=CCc1ccccc1OCC(O)CNC(C)C (centres unmarked) [Alprenolol hydrochloride],remaining activity at 10 µM,human NTCP [1],135%
same,remaining activity at 10 µM,"human NTCP [2]; 0.5 h, read-out: %NTCP binding",76.1%
CN1CCCC(n2nc(Cc3ccc(Cl)cc3)c3ccccc3c2=O)CC1 (centres unmarked) [Azelastine HCl],remaining activity at 10 µM,human NTCP [1],131%
same,remaining activity at 10 µM,"human NTCP [2]; 0.5 h, read-out: %NTCP binding",83.2%
C#C[C@]1(O)CC[C@H]2[C@@H]3CCC4=CC(=O)CCC4=C3C=C[C@@]21CC [Gestrinone],remaining activity at 10 µM,human NTCP [1],46%
same,remaining activity at 10 µM,human NTCP [2]; [4],113%
Nc1nc2c(ncn2CCC(CO)CO)c(=O)[nH]1 [Penciclovir],remaining activity at 10 µM,human NTCP [1],115%
same,remaining activity at 10 µM,"human NTCP [2]; 0.5 h, read-out: %NTCP binding",85.7%
CN(C)CCCN1c2ccccc2Sc2ccccc21 [Promazine hydrochloride],remaining activity at 10 µM,human NTCP [1],107%
same,remaining activity at 10 µM,"human NTCP [2]; 0.5 h, read-out: %NTCP binding",69.1%
OC(Cn1cncn1)(Cn1cncn1)c1ccc(F)cc1F [Fluconazole],remaining activity at 10 µM,human NTCP [1],132%
same,remaining activity at 10 µM,"human NTCP [2]; 0.5 h, read-out: %NTCP binding",101%
COc1ccc(C(=O)N2CCCC2=O)cc1 [Aniracetam],remaining activity at 10 µM,human NTCP [1],115%
same,remaining activity at 10 µM,human NTCP [2]; [4],83.2%
CC(C)NC[C@H](O)COc1cccc2ccccc12 [(S)-propranolol hydrochloride],remaining activity at 10 µM,human NTCP [1],66.5%
same,remaining activity at 10 µM,"human NTCP [2]; 0.5 h, read-out: %NTCP binding",97.8%
CCN(CC)CCOC(=O)c1ccc(N)cc1 [Procaine hydrochloride],remaining activity at 10 µM,human NTCP [1],122%
same,remaining activity at 10 µM,"human NTCP [2]; 0.5 h, read-out: %NTCP binding",119%
COc1ccc(C[C@@H]2c3cc(OC)c(OC)cc3CC[N@+]2(C)CCC(=O)OCCCCCOC(=O)CC[N@@+]2(C)CCc3cc(OC)c(OC)cc3[C@H]2Cc2ccc(OC)c(OC)c2)cc1OC [Cisatracurium besylate],remaining activity at 10 µM,human NTCP [1],107%
same,remaining activity at 10 µM,"human NTCP [2]; 0.5 h, read-out: %NTCP binding",89%
NC(=O)c1ncn([C@@H]2O[C@H](CO)[C@@H](O)[C@H]2O)n1 [Ribavirin],remaining activity at 10 µM,human NTCP [1],99.9%
same,remaining activity at 10 µM,"human NTCP [2]; 0.5 h, read-out: %NTCP binding",98.2%
OCc1cc(C(O)CNCCCCCCOCCCCc2ccccc2)ccc1O (centres unmarked) [Salmeterol],remaining activity at 10 µM,human NTCP [1],63.6%
same,remaining activity at 10 µM,"human NTCP [2]; 0.5 h, read-out: %NTCP binding",78.3%
C[N+](C)(C)CCOC(N)=O [Carbachol],remaining activity at 10 µM,human NTCP [1],116%
same,remaining activity at 10 µM,"human NTCP [2]; 0.5 h, read-out: %NTCP binding",71.1%
CN(CCCCCCCCCCN(C)C(=O)Oc1cccc([N+](C)(C)C)c1)C(=O)Oc1cccc([N+](C)(C)C)c1 [Demecarium bromide],remaining activity at 10 µM,human NTCP [1],125%
same,remaining activity at 10 µM,"human NTCP [2]; 0.5 h, read-out: %NTCP binding, Prestwick library screen, 10 µM drug, Myrcludex B-FITC binding",86.4%
NC(=O)N1c2ccccc2C=Cc2ccccc21 [Carbamazepine],remaining activity at 10 µM,human NTCP [1],144%
same,remaining activity at 10 µM,"human NTCP [2]; 0.5 h, read-out: %NTCP binding",104%
CCCC(CCC)C(=O)O [Valproic acid],remaining activity at 10 µM,human NTCP [1],113%
same,remaining activity at 10 µM,"human NTCP [2]; 0.5 h, read-out: %NTCP binding",94.9%
CC(=O)CC(c1ccccc1)c1c(O)c2ccccc2oc1=O (centres unmarked) [Warfarin],remaining activity at 10 µM,human NTCP [1],84.3%
same,remaining activity at 10 µM,human NTCP [2]; [4],78.1%
Nc1ncnc2c1ncn2[C@@H]1O[C@H](COP(=O)(O)O)[C@@H](O)[C@H]1O.O [Adenosine 5'-monophosphate monohydrate],%NTCP activity,human NTCP [1],52.9396%
same,%NTCP binding,human NTCP [2]; [5],76.1115%
CCN(CC)CCOC(=O)C(c1ccccc1)c1ccccc1 [Adiphenine hydrochloride],remaining activity at 10 µM,human NTCP [1],115%
same,remaining activity at 10 µM,"human NTCP [2]; 0.5 h, read-out: %NTCP binding",90.4%
CCCCC(O)c1ccccc1 (centres unmarked) [Fenipentol],%NTCP activity,human NTCP [1],94.6657%
same,%NTCP binding,human NTCP [2]; [3],79.6525%
Nc1ncn([C@@H]2O[C@H](CO)[C@@H](O)[C@H]2O)c(=O)n1 [Azacytidine-5],%NTCP activity,"human NTCP [1]; Prestwick library screen, 10 µM drug, [14C]taurocholate uptake",100.597%
same,%NTCP binding,human NTCP [2]; [5],93.694%
C[C@]12CCC(=O)C(O)=C1CC[C@@H]1[C@@H]2CC[C@]2(C)C(=O)CC[C@@H]12 [Formestane],remaining activity at 10 µM,human NTCP [1],103%
same,remaining activity at 10 µM,"human NTCP [2]; 0.5 h, read-out: %NTCP binding",83.1%
COC(=O)Nc1nc2ccc(C(=O)c3cccs3)cc2[nH]1 [Nocodazole],remaining activity at 10 µM,human NTCP [1],53.9%
same,remaining activity at 10 µM,"human NTCP [2]; 0.5 h, read-out: %NTCP binding",86.3%

# — paper PMC5681660, “Reduced hepatitis B and D viral entry using clinically applied drugs as novel inhibitors of the bile acid transporter NTCP” (Scientific Reports, 2017)
